{
  "source": "patent US20170101664",
  "proteins": {"B1": {"name": "Abl kinase (protein)", "chain": "EALQRPVASDFEPQGLSEAARWNSKENLLAGPSE[not shown - about 60 residues]LEKHSWYHGPVSRNAAEYLLSSGINGSFLVRESESSPGQRSISLRYEGRVYHYRINTASDGKLYVSSESRFNTLAELVHHHSTVADGLITTLHYPAPKRNKPTVYGVSPNYDKWEMERTDITMKHKLGGGQYGEVYEGVWKKYSLTVAVKTLKEDTMEVEEFLKEAAVMKEIKHPNLVQLLGVCTREPPFYIITEFMTYGNLLDYLRECNRQEVNAVVLLYMATQISSAMEYLEKKNFIHRDLAARNCLVGENHLVKVADFGLSRLMTGDTYTAHAGAKFPIKWTAPESLAYNKFSIKSDVWAFGVLLWEIATYGMSPYPGIDLSQVYELLEKDYRMERPEGCPEKVYELMRACWQWNPSDRPSFAEIHQAFETMFQESSISDEVEKELGKQGVRGAVSTLLQAPELPTKTRTSRRAAEHRDTTDVPEMPHSKGQGESDPLDHEPAVSPLLPRKERGPPEGGLNEDERLLPKDKKTNLFSALIKKKKKTAPTPPKRSSSFREMDGQPERRGAGEEEGRDISNGALAFTPLDTADPAKSPKPSNGAGVPNGALRESGGSGFRSPHLWKKSSTLTSSRLATGEEEGGGSSSKRFLRSCSASCVPHGAKDTEWRSVTLPRDLQSTGRQFDSSTFGGHKSEKPALPRKRAGENRSDQVTRGTVTPPPRLVKKNEEAADEVFKDIMESSPGSSPPNLTPKPLRRQVTVAPASGLPHKEEAGKGSALGTPAAAEPVTPTSKAGSGAPGGTSKGPAEESRVRRHKHSSESPGRDKGKLSRLKPAPPPPPAASAGKAGGKPSQSPSQEAAGEAVLGAKTKATSLVDAVNSDAAKPSQPGEGLKKPVLPATPKPQSAKPSGTPISPAPVPSTLPSASSALAGDQPSSTAFIPLISTRVSLRKTRQPPERIASGAITKGVVLDSTEALCLAISRNSEQMASHSAVLEAGKNLYTFCVSYVDSIQQMRNKFAFREAINKLENNLRELQICPATAGSGPAATQDFSKLLSSVKEISDIVQR"}},
  "key": {"[1]": {"biological_target": "control peptide SEQ ID NO:53 (KbiotinkkafpaayiaeG-photo-cleavable linker-GCGGrrrqrrkkr)"}, "[2]": {"biological_target": "biosensor SEQ ID NO:47 (KbiotinkkafpaayiaeG-photo-cleavable linker-…rrrqrrkkr)"}},
  "data": [
    {"protein": "B1", "values": [
      {"measurement": "phosphorylation in the in vitro kinase assay, detected by mass spectrometry", "setting": "[1]", "value": "SEQ ID NO: 53 was not appreciably phosphorylated"},
      {"measurement": "Km (michaelis-menton constant)", "setting": "[2]", "value": "Km=7.5 µM"},
      {"measurement": "Vmax (michaelis-menton constant)", "setting": "[2]", "value": "Vmax=849.5 pmol/mg·min"},
      {"measurement": "phosphorylation in the in vitro kinase assay, detected by mass spectrometry", "setting": "[2]", "value": "when the SH3 targeting sequence was present in the full-length, SEQ ID NO:47 was phosphorylated with reasonable efficiency"}
    ]}
  ]
}
